The target in data set [1] is T1, GCDH wild type (WT) (Homo sapiens, UniProt Q92947). The data set is described as follows: biochemical. Particulars: read-out: ΔTm GCDH WT.
In data set [2] the target is T2, GCDH WT (Homo sapiens, UniProt Q92947).
Data set [3] has as its target T2, GCDH WT. The data set is described as follows: biochemical. The following applies: read-out: relative enzymatic activity (% DMSO).
In data set [4] the target is T1, GCDH wild type (WT).
In data set [5] the test system is tested GCDH proteins (without MBP-tag).
The target of a further data set is GCDH (Homo sapiens, UniProt Q92947).
In data set [6] the target is T2, GCDH WT. This is another data set of the same source.
The nature of the next data set: physchem. The following applies: pH 7, Solubility.

21 compounds from PMC11472340 (Journal of Medicinal Chemistry, 2024) can be followed below.

Converted amounts (≈) assume the structure as drawn.

Take `COc1ccccc1N1CC(NC(=O)CCc2nc3ccc(Cl)cc3[nH]2)CC1=O` (stereo not shown) [Compound A86]: on GCDH wild type (WT) [1], the ΔTm – broadly, the shift of the melting midpoint relative to a reference – at 10 µM amounted to 0.16 °C and the ΔTm at 30 µM came out at 2.43 °C.
Consider `O=C(CSc1nc2ccccc2s1)NCC(=O)c1ccccc1` [Compound A87], for which, at GCDH wild type (WT) [1], the ΔTm at 10 µM was -0.02 °C, the ΔTm at 30 µM came to 0.2 °C and the ΔTm at 100 µM was -1.36 °C.
As for `COC(=O)c1ccccc1NC(=O)CSc1nnc(CNc2ccc(Cl)cc2)o1` [Compound A88], on GCDH wild type (WT) [1], the ΔTm at 30 µM turned out to be 1.06 °C and the shift in melting temperature (ΔTm) at 100 µM is -1.19 °C.
With `COc1cccc(CNc2cnc3ccccc3c2)c1O` [Compound A89], at GCDH wild type (WT) [1], the ΔTm at 10 µM came to 0.44 °C, the ΔTm at 30 µM is -0.24 °C and the ΔTm at 100 µM was -1.21 °C.
As for `Cc1nc2ccc(C(=O)NCC[S+](C)[O-])cc2s1` (stereo not shown) [Compound A90], at GCDH wild type (WT) [1], the ΔTm at 30 µM was -0.04 °C and the ΔTm at 100 µM was -0.28 °C.
Take `O=C(CSc1nc2ccccc2o1)NCC(=O)c1ccccc1` [Compound A91]: on GCDH wild type (WT) [1], the ΔTm at 10 µM was determined as 0.19 °C, the ΔTm at 30 µM is -0.16 °C and the ΔTm at 100 µM was -0.54 °C.
As for `O=C(COc1ccccc1)Nc1nncs1` [Compound A92], on GCDH wild type (WT) [1], the ΔTm at 30 µM amounted to 0.09 °C and the ΔTm at 100 µM was -0.27 °C.
For the compound `CCc1nnc(NC2=NC(=O)CS2)s1` [Compound A93], on GCDH wild type (WT) [1], the ΔTm at 10 µM turned out to be 0.73 °C, the ΔTm at 30 µM came out at 0.03 °C and the ΔTm at 100 µM was -0.55 °C.
As for `O=C(Cn1nnc(-c2ccccc2-n2cnnn2)n1)Nc1cccc(Cl)c1` [Compound A94], on GCDH wild type (WT) [1], the ΔTm at 10 µM came out at 0.63 °C, the ΔTm at 30 µM is -0.51 °C and the ΔTm at 100 µM was -1.64 °C.
Regarding `O=C(Cc1ccc2ccccc2c1)Nc1cccnc1` [Compound B12], on GCDH WT [2], the “ITC (Kd)” value is recorded as “no binding”. Also, the remaining activity at 10 µM at GCDH WT [3] was determined as 115 ± 19%.
In the case of `O=S1(=O)NC(CN2CCCc3cc(F)cc(F)c32)=Nc2ccccc21` [Compound B14], the “ITC (Kd)” value at GCDH WT [2] is listed as “insoluble”. Also, the remaining activity at 10 µM at GCDH WT [3] worked out at 111 ± 4%. At GCDH wild type (WT) [4], the “stability effect (ΔTm score) WT” value was 1 (key: scores of 1 given for ΔTm > 1 °C; 2 for ΔTm > 2 °C; 4 for ΔTm > 3 °C).
Consider `CN(CC1=Nc2ccccc2S(=O)(=O)N1)c1ccccc1` [Compound B15], for which the remaining activity at 10 µM at GCDH WT [3] was 112%. For the same compound, on GCDH wild type (WT) [4], the “stability effect (ΔTm score) WT” value is 2 (key: scores of 1 given for ΔTm > 1 °C; 2 for ΔTm > 2 °C; 4 for ΔTm > 3 °C).
Consider `O=C(Nc1ccc(Cl)c(Cl)c1)Nc1cnc2ccccc2c1` [Compound B29], for which, on GCDH WT [2], the “ITC (Kd)” value was “insoluble”. Besides, at GCDH WT [3], the remaining activity at 10 µM was 134 ± 4%. At GCDH wild type (WT) [4], the “stability effect (ΔTm score) WT” value was 2 (key: scores of 1 given for ΔTm > 1 °C; 2 for ΔTm > 2 °C; 4 for ΔTm > 3 °C) and the “ΔTm GCDH WT at the lowest concentrations tested” value (shortened to “ΔTm GCDH WT”) was ≥ 2 °C. Also, in data set [5], the “effect on thermal stability, all tested GCDH proteins” value is “did not show significant thermal stability changes”.
`O=C(Nc1ccc(Cl)c(Cl)c1)Nc1cccc2cccnc12` [Compound B30]: the remaining activity at 10 µM on GCDH WT [3] was 124 ± 8%. At GCDH, the General evaluation entry was “Stabiliser. Activator”. Besides, at GCDH wild type (WT) [4], the “stability effect (ΔTm score) WT” value was 4 (key: scores of 1 given for ΔTm > 1 °C; 2 for ΔTm > 2 °C; 4 for ΔTm > 3 °C) and the “ΔTm GCDH WT” value was ≥ 2 °C.
For the compound `O=C(Nc1ccc(Cl)c(Cl)c1)Nc1cccnc1Cl` [Compound B31], the “increase of GCDH specific activity” value at GCDH WT [6] is > 47.1%. Further, on GCDH WT [3], the remaining activity at 10 µM is 147 ± 5%. Also, in “physchem”, the concentration in solution (solubility) was 0.93 µM (≈ 0.294 µg/mL). Besides, the “stability effect (ΔTm score) WT” value on GCDH wild type (WT) [4] was 4 (key: scores of 1 given for ΔTm > 1 °C; 2 for ΔTm > 2 °C; 4 for ΔTm > 3 °C).
`Cc1ccnc(NC(=O)Cc2ccc(Cl)cc2)c1` [Compound B34]: the “ITC (Kd)” value at GCDH WT [2] is recorded as “no binding”. Also, the “increase of GCDH specific activity” value on GCDH WT [6] was > 51.8%. The remaining activity at 10 µM at GCDH WT [3] was 152 ± 13%.
For `COc1cc2ccccc2cc1C(=O)NCCc1ccccc1` [Compound B37], on GCDH WT [3], the remaining activity at 10 µM came out at 140 ± 13%.
As for `CC(Sc1nncs1)C(=O)Nc1nc(-c2ccc(Cl)c(Cl)c2)cs1` (stereo not shown) [Compound B40], the “ITC (Kd)” value on GCDH WT [2] was “insoluble”. Moreover, the remaining activity at 10 µM on GCDH WT [3] was 119 ± 10%. For the same compound, the “stability effect (ΔTm score) WT” value on GCDH wild type (WT) [4] is 4 (key: scores of 1 given for ΔTm > 1 °C; 2 for ΔTm > 2 °C; 4 for ΔTm > 3 °C).
In the case of `Nc1cc(NC(=O)c2cccc(Cl)c2)cc(Oc2cccnc2)c1` [Compound B47], the remaining activity at 10 µM on GCDH WT [3] was 122 ± 10%. Besides, on GCDH wild type (WT) [4], the “stability effect (ΔTm score) WT” value was 2 (key: scores of 1 given for ΔTm > 1 °C; 2 for ΔTm > 2 °C; 4 for ΔTm > 3 °C) and the “ΔTm GCDH WT” value is ≥ 2 °C.
For `CCc1ccc2nc(NC(=O)c3ccc(O)c(O)c3)sc2c1` [Compound B49], at GCDH WT [2], the “ITC (Kd)” value was “insoluble”. Also, on GCDH WT [3], the remaining activity at 10 µM turned out to be 2.6 ± 2.3%. Besides, at GCDH wild type (WT) [4], the “stability effect (ΔTm score) WT” value was 4 (key: scores of 1 given for ΔTm > 1 °C; 2 for ΔTm > 2 °C; 4 for ΔTm > 3 °C) and the “ΔTm GCDH WT” value was ≥ 2 °C.
As to `O=C(Nc1cccc(Cl)c1)Nc1cccc(Cl)c1` [Compound B56], the remaining activity at 10 µM on GCDH WT [3] was found to be 113 ± 5%. For the same compound, the General evaluation entry on GCDH is “Stabiliser. Activator”. Moreover, at GCDH wild type (WT) [4], the “stability effect (ΔTm score) WT” value is 4 (key: scores of 1 given for ΔTm > 1 °C; 2 for ΔTm > 2 °C; 4 for ΔTm > 3 °C) and the “ΔTm GCDH WT” value was ≥ 2 °C.
